For seven substances, binding results are on record in PMC3701669.

The chains behind the UniProt entries cited, without tags or fusion partners. Where a name states a change or a piece, a line headed by the entry shows the natural chain unless it says otherwise. A line that says so, or that is headed by a name, gives the form on record, which may keep a tag or linker. Residues count along the entry.
UniProt P39687: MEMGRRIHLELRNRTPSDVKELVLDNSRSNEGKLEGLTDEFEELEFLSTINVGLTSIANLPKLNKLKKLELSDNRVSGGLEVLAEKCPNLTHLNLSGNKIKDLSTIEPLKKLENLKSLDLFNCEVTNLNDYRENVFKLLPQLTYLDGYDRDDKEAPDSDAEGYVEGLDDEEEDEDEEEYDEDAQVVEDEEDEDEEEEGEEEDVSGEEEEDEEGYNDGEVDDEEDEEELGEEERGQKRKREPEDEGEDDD
TAF-1β N-terminal deletion, amino acids 133–277 (Q9EQU5, residues 145-289): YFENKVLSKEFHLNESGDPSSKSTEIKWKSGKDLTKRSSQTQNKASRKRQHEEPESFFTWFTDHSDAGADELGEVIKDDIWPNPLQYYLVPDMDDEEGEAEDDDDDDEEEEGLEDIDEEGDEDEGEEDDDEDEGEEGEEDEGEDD
template-activating factor-1β (TAF-1β), endogenous mouse (Q9EQU5-2, form named): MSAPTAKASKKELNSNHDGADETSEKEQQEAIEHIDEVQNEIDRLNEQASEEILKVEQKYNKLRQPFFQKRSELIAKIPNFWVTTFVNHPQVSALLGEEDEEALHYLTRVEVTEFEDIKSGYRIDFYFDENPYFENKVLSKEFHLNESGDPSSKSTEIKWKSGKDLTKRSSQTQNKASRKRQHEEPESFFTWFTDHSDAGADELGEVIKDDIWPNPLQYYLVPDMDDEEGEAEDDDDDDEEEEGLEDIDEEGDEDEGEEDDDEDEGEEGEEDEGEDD
TAF-1β 1–225 (C-terminal deletion eliminating the acidic domain) (Q9EQU5-2, form named): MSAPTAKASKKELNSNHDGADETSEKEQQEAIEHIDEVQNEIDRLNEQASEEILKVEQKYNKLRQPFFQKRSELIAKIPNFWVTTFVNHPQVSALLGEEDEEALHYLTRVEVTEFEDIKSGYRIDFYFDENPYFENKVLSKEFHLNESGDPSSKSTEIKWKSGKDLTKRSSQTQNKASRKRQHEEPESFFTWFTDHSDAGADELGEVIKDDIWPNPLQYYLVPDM
UniProt O35381: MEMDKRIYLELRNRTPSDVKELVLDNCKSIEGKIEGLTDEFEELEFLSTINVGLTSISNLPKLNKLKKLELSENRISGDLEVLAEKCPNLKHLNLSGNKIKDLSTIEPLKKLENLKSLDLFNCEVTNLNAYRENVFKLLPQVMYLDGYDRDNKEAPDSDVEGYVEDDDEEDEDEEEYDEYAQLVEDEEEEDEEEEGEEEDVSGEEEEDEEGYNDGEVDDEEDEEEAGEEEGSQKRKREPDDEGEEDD

Assay [1] addresses T1, GST-LHX3a (full-length LHX3 protein) (human) (UniProt Q9UBR4).
T1 sequence: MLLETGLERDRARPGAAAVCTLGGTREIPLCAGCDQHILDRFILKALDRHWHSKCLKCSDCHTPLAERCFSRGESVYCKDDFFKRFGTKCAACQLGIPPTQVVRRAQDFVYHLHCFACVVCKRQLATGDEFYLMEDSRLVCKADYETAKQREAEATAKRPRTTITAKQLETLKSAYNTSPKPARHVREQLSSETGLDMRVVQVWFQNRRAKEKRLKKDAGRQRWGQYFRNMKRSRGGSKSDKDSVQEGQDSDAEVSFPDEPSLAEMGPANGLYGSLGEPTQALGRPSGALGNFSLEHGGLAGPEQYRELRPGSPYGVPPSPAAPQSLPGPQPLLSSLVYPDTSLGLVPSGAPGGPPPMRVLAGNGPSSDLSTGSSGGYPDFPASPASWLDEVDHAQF
Put plainly: pull-down; GST-LHX3 fusion on glutathione-agarose resin; 200,000 cpm of 35S-labeled in vitro translated protein (rabbit reticulocyte lysate or wheat germ extract); 20 mM HEPES pH 7.9, 300 mM NaCl, 1 mM EDTA, 4 mM MgCl2, 0.02% NP-40, 10% glycerol, 1 mM ZnCl2, 1 mM DTT, 20 µg/ml ethidium bromide; 1 hour at 4°C; SDS-PAGE, autoradiography; GST alone as control; only the target purified.

Assay [2] concerns the target T2, GST-human LHX3a C-terminus (residues 225–397) fusion protein (human) (UniProt Q9UBR4).
T2 sequence: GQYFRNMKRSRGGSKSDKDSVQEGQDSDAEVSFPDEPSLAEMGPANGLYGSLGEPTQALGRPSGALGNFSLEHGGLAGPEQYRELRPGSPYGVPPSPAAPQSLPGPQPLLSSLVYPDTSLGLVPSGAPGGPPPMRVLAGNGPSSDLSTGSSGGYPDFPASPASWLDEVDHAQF
The description is as above.

Assay [3] has as its target T2, GST-human LHX3a C-terminus (residues 225–397) fusion protein (human). Put plainly: pull-down; interaction screen repeated: GST-LHX3 C-terminus resin with precleared mouse pituitary cell or gland extracts; recovered proteins analysed by western blotting with antibodies to LANP and TAF-1β; GST alone as control; only the target purified. In general terms: Immunoblotting shows a protein as a band on a membrane.

Results are given in words; binding and its absence hold for the method and conditions named. Binding seen in cells or lysates may run through a third protein. Some entries that bind do so weakly or less than the wild type. Where a sequence is shown, tags or fusion partners need not be part of it.

As to “Full-length LANP (amino acids 1–249), radiolabeled (from UniProt P39687 1-249)”, the binding entry in assay [1] and in assay [2] was “binds” throughout.
Take “Full-length TAF-1β, radiolabeled (from UniProt Q9EQU5-2 1-277)”: the binding entry in assay [1] and in assay [2] was “binds” in each case.
Consider “LANP deletion construct, amino acids 1–167 (from UniProt P39687 1-167) (domain or fragment)”, for which, in assay [1], the binding result is on record as “no binding”.
Turning to “TAF-1β 1–225 (C-terminal deletion eliminating the acidic domain) (from UniProt Q9EQU5-2 1-225) (domain or fragment)”, the binding result in assay [1] was “no binding”.
Still for that read-out and setting: in the case of “TAF-1β N-terminal deletion, amino acids 133–277 (from UniProt Q9EQU5-2 133-277) (domain or fragment)” it was “binds”.
Take “leucine rich acidic nuclear protein (LANP), endogenous mouse (from UniProt O35381 1-247)”: the binding entry in assay [3] is reported as “binds”.
Still for that read-out and setting: to “template-activating factor-1β (TAF-1β), endogenous mouse (from UniProt Q9EQU5-2 1-277)” belongs “binds”.
